Article PMC7311171 (2020)
These are yes or no findings as the source states them, for the method shown. For some assays here: Binding seen in cells or lysates may run through a third protein. Some binding calls cover weakened binding; strength is not graded here. For some assays here: Sequences can lack the tags named with a protein. Values belong to the binder of their own block, whether it stands above or below them.

Protein sequences, listed by entry. Tags and fused reporters are not part of them. Lines headed by an entry give the natural chain unless they say otherwise; changes in a name come on top. Residues count along the entry.
GST-SMO^Ctail (aa 543–793) (P56726, residues 543-793): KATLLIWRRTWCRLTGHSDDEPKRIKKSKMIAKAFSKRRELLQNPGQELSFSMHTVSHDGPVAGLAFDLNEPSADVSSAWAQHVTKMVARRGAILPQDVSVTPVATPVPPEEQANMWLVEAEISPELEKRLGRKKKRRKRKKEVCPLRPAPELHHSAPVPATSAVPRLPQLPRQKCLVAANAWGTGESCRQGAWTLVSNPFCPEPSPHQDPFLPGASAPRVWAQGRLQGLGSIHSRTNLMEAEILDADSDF
SMO^Ctail with the first 10 amino acids deleted, yeast two-hybrid construct (P56726, residues 553-793): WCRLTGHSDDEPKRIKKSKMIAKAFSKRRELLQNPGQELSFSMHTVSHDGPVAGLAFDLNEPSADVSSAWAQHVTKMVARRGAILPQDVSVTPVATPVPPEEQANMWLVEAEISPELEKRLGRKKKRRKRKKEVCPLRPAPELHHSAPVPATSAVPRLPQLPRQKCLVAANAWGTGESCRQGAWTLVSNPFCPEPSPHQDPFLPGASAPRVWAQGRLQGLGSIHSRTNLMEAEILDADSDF

How the values were obtained:
[1] = target: GST-SMO^Ctail (aa 543–793) (mouse) (UniProt P56726); assay: pull-down; GST-capture: glutathione Sepharose beads saturated with GST fusions; in vitro translated 6xMyc BBSome subunits or fragments in NSC250 buffer (25 mM Tris pH 8.0, 250 mM KCl, 5 mM MgCl2, 0.5% CHAPS, 1 mM DTT), 1 hr, 4°C; elution by PreScission cleavage; anti-Myc blot; only the target purified
[2] = target: T1, GST-SMO^H8 (GST fused to the first 19 amino acids of SMO^Ctail, aa 543–559) (mouse) (UniProt P56726); assay: as above
T1 sequence: KATLLIWRRTWCRLTGH

[3] = target: T2, BBS2^C (residues 324–712), yeast two-hybrid construct (UniProt Q9BXC9); assay: two-hybrid; yeast mated in a 96-well matrix; growth on medium lacking tryptophan, leucine and histidine
T2 sequence: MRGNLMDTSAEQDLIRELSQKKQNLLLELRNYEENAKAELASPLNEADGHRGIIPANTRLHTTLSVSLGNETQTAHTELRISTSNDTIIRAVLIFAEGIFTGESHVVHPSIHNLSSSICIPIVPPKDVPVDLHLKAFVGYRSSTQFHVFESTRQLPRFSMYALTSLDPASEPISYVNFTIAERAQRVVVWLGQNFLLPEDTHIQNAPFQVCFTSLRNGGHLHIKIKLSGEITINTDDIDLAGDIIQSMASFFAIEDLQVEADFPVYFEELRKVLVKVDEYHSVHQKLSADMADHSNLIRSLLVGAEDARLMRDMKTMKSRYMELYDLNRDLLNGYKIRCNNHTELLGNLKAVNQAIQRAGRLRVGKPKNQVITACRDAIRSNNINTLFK

[4] = target: SMO^Ctail with the first 10 amino acids deleted, yeast two-hybrid construct (UniProt P56726); assay: as above
[5] = target: SMO^Ctail, yeast two-hybrid construct (UniProt P56726); assay: as above

B1: BBS5, in vitro translated, tagged with a 6xMyc epitope (protein, UniProt Q8N3I7 1-341)
chain: MSVLDALWEDRDVRFDLSAQQMKTRPGEVLIDCLDSIEDTKGNNGDRGRLLVTNLRILWHSLALSRVNVSVGYNCILNITTRTANSKLRGQTEALYILTKCNSTRFEFIFTNLVPGSPRLFTSVMAVHRAYETSKMYRDFKLRSALIQNKQLRLLPQEHVYDKINGVWNLSSDQGNLGTFFITNVRIVWHANMNDSFNVSIPYLQIRSIKIRDSKFGLALVIESSQQSGGYVLGFKIDPVEKLQESVKEINSLHKVYSASPIFGVDYEMEEKPQPLEALTVEQIQDDVEIDSDGHTDAFVAYFADGNKQQDREPVFSEELGLAIEKLKDGFTLQGLWEVMS
- binding [1]: binds weakly
- binding [2]: binds weakly

B2: BBS7^C (BBS7[326-672]), yeast two-hybrid construct (domain or fragment, UniProt Q8IWZ6-2 326-672)
chain: SGPGEELKINQEMQNKISSLRNELEHLQYKVLQERENYQQSSQSSKAKSAVPSFGINDKFTLNKDDASYSLILEVQTAIDNVLIQSDVPIDLLDVDKNSAVVSFSSCDSESNDNFLLATYRCQADTTRLELKIRSIEGQYGTLQAYVTPRIQPKTCQVRQYHIKPLSLHQRTHFIDHDRPMNTLTLTGQFSFAEVHSWVVFCLPEVPEKPPAGECVTFYFQNTFLDTQLESTYRKGEGVFKSDNISTISILKDVLSKEATKRKINLNISYEINEVSVKHTLKLIHPKLEYQLLLAKKVQLIDALKELQIHEGNTNFLIPEYHCILEEADHLQEEYKKQPAHLERLYG
- binding [3]: binds
- binding [4]: no binding
- binding [5]: binds

The next lines start with the values.

- binding [1]: binds
- binding [2]: binds
B3: BBS7, in vitro translated, tagged with a 6xMyc epitope (protein, UniProt Q8IWZ6-2 1-672)
chain: MDLILNRMDYLQVGVTSQKTMKLIPASRHRATQKVVIGDHDGVVMCFGMKKGEAAAVFKTLPGPKIARLELGGVINTPQEKIFIAAASEIRGFTKRGKQFLSFETNLTESIKAMHISGSDLFLSASYIYNHYCDCKDQHYYLSGDKINDVICLPVERLSRITPVLACQDRVLRVLQGSDVMYAVEVPGPPTVLALHNGNGGDSGEDLLFGTSDGKLALIQITTSKPVRKWEIQNEKKRGGILCIDSFDIVGDGVKDLLVGRDDGMVEVYSFDNANEPVLRFDQMLSESVTSIQGGCVGKDSYDEIVVSTYSGWVTGLTTEPIHKESGPGEELKINQEMQNKISSLRNELEHLQYKVLQERENYQQSSQSSKAKSAVPSFGINDKFTLNKDDASYSLILEVQTAIDNVLIQSDVPIDLLDVDKNSAVVSFSSCDSESNDNFLLATYRCQADTTRLELKIRSIEGQYGTLQAYVTPRIQPKTCQVRQYHIKPLSLHQRTHFIDHDRPMNTLTLTGQFSFAEVHSWVVFCLPEVPEKPPAGECVTFYFQNTFLDTQLESTYRKGEGVFKSDNISTISILKDVLSKEATKRKINLNISYEINEVSVKHTLKLIHPKLEYQLLLAKKVQLIDALKELQIHEGNTNFLIPEYHCILEEADHLQEEYKKQPAHLERLYG

- binding [2]: binds
B4: BBS7 βprop (aa 1–332), in vitro translated, 6xMyc (domain or fragment, UniProt Q8IWZ6-2 1-332)
chain: MDLILNRMDYLQVGVTSQKTMKLIPASRHRATQKVVIGDHDGVVMCFGMKKGEAAAVFKTLPGPKIARLELGGVINTPQEKIFIAAASEIRGFTKRGKQFLSFETNLTESIKAMHISGSDLFLSASYIYNHYCDCKDQHYYLSGDKINDVICLPVERLSRITPVLACQDRVLRVLQGSDVMYAVEVPGPPTVLALHNGNGGDSGEDLLFGTSDGKLALIQITTSKPVRKWEIQNEKKRGGILCIDSFDIVGDGVKDLLVGRDDGMVEVYSFDNANEPVLRFDQMLSESVTSIQGGCVGKDSYDEIVVSTYSGWVTGLTTEPIHKESGPGEEL
